The source of these data is ChEMBL document CHEMBL4888484, “Replenishing the malaria drug discovery pipeline: Screening and hit evaluation of the MMV Hit Generation Library 1 (HGL1) against asexual blood stage Plasmodium falciparum ,using a nano luciferase reporter read-out” (2022).

SMILES strings stand for the structures. Screen size: about 150,000 compounds; about 540 (0.36%) showed an effect of 50% or more. Some of the results follow.

This test deals with Plasmodium falciparum. The test is described as follows: Primary screen in NF54 nanoGlo assay, in single point, at 2uM, 72h; a lower Z score goes with more inhibition. It is filed as functional, Erythrocyte. Particulars: timepoint 72 hour.
`Cc1cc(C(=O)Nc2n[nH]c3ccnc(O)c23)n(C2CCOCC2)n1`: the “% Inhibition” value is listed as -2% and the Z score was 0.2.
For the molecule `CCn1nc(C(=O)N2[C@H](C)CCC[C@@H]2C)ccc1=O`, the “% Inhibition” value worked out at 5% and the Z score is on record as -0.72.
Taken in the same sequence, the figures for `O=C(Nc1ccc(F)cc1Cl)[C@@H]1Oc2ccccc2NC1=O` were -11% and 1.25.
Taken in the same sequence, the figures for `COc1ccccc1C(=O)N1CCN(c2cc(-n3ccc(C)n3)ncn2)CC1` were -6% and 0.91.
In the same order, the values of `Cc1nnc(N2CCN(C(=O)c3cccc(N(C)C)c3)CC2)s1` are -2% and 0.44.
Take `C[C@H](NC(=O)C1(C#N)CCCC1)c1ccco1`: the “% Inhibition” value is on record as -5% and the Z score is recorded as 0.9.
In the case of `CC1CCC(C(C)C)C(OCC(=O)NC(C)c2nnc3n2CCC3)C1` (stereo unspecified), the “% Inhibition” value is -4% and the Z score worked out at 0.54.
Taken in the same sequence, the figures for `Cc1nn(C)cc1Cn1ccc2ncccc2c1=O` were -23% and 3.04.
On to `COc1ncc(C(=O)N[C@H]2COCC[C@@H]2OC)cn1`, for which the “% Inhibition” value worked out at 7% and the Z score was -0.86.
In the same order, the values of `Cc1ccc(C)c(NC(=O)N(CCCN2CCN(C)CC2)C2CCOCC2)c1` are -15% and 1.28.
Taken in the same sequence, the figures for `CCCN(CC(=O)N(Cc1ccccc1)C1CCN(C(C)=O)CC1)S(=O)(=O)c1ccccc1` were -4% and 0.53.
As for `CC1COCC(C)N1c1ncc(-c2nnnn2-c2ccccc2)c(-c2cccc(C(F)(F)F)c2)n1` (stereo unspecified), the “% Inhibition” value was -35% and the Z score was determined as 4.14.
Taken in the same sequence, the figures for `CN(C)C[C@@H](c1ccccc1)N(C)C(=O)Nc1ccc2c(cnn2C)c1` were -8% and 0.78.
Taken in the same sequence, the figures for `CCc1nc(Cn2cnc3c2c(=O)n(C)c(=O)n3C)cs1` were 3% and -0.52.
Taken in the same sequence, the figures for `O=C(NCCc1nccs1)N1CC(F)C1` were 3% and -0.25.
Regarding `Cc1ccc(S(=O)(=O)N(c2ccccc2)C2CCN(Cc3ccc(N(C)C)cc3)CC2)cc1`, the “% Inhibition” value is -11% and the Z score worked out at 1.25.
In the same order, the values of `CC(C)(O)c1cc(-c2ccc(Oc3ccccc3)cc2)no1` are 1% and -0.12.
For `CCC1CCCCC1OCC(=O)NCc1cncc(C)c1` (stereo unspecified), the “% Inhibition” value is -1% and the Z score came to 0.13.
Turning to `C#CCOc1ccc([C@H]2CC(O)=Nc3nc(NC)sc32)cc1OC`, the “% Inhibition” value is 0% and the Z score is 0.03.
Turning to `CN1CCN(CC[C@H]2CCCCN2C(=O)Nc2cccc3[nH]ncc23)CC1`, the “% Inhibition” value was -10% and the Z score is recorded as 1.29.
`Cc1noc(C)c1S(=O)(=O)N1CCC[C@H]1C(=O)Nc1ccc(Br)cc1`: the “% Inhibition” value is on record as 1% and the Z score was -0.12.
Consider `Cc1onc(N)c1S(=O)(=O)N[C@H]1CCc2cc(Cl)ccc21`, for which the “% Inhibition” value was -7% and the Z score was 0.66.
In the same order, the values of `Cc1ccc(Nc2nc(N(C)C)nc3nccnc23)c(C)c1` are -10% and 1.12.
With `CC#CCn1nnc(-c2cccs2)n1`, the “% Inhibition” value is given as 10% and the Z score was -1.16.
In the case of `CCOc1cccc(Cc2noc([C@]3(OC)CCOC3)n2)n1`, the “% Inhibition” value is listed as 0% and the Z score worked out at 0.02.
Taken in the same sequence, the figures for `Cc1ccccc1Cn1c(NC2CCCCC2)nc2c1c(=O)[nH]c(=O)n2C` were -8% and 1.29.
In the case of `CCCN1CCN(C(=O)[C@@H]2Cc3[nH]cnc3C3(CCCC3)N2)CC1`, the “% Inhibition” value is -9% and the Z score turned out to be 1.46.
Taken in the same sequence, the figures for `CCOC(=O)[C@@H]1CCCN(C(=O)Cn2nnc3ccccc32)C1` were -6% and 1.02.
Turning to `CC(C)c1nn(C)cc1-c1noc([C@@]23CCCC[C@@H]2NCC3)n1`, the “% Inhibition” value is recorded as -13% and the Z score was found to be 2.38.
As for `CC1CCCC(NC(=O)Nc2cnsc2)C1` (stereo unspecified), the “% Inhibition” value was -1% and the Z score is reported as 0.1.
Taken in the same sequence, the figures for `C=CCC1(OCc2ccccc2)CCN(C(=O)NCc2cn(C)nc2C)CC1` were -2% and 0.46.
For `CN1CCN(CC[C@H]2CCCCN2Cc2ccnc3ccccc23)CC1`, the “% Inhibition” value was -8% and the Z score is 1.57.
Consider `Cc1ccc2nccc(C(=O)N3C[C@H]4CC[C@@H](C3)[C@H]4N(C)C)c2c1`, for which the “% Inhibition” value is on record as 11% and the Z score is listed as -1.45.
In the same order, the values of `O=C(NCCOc1ccc2c(c1)OCO2)C1CCCCC1` are -8% and 0.73.
In the same order, the values of `Cc1ccc(CN2CCNC(=O)[C@@H]2CC(=O)N(Cc2nccn2C)C(C)C)o1` are 7% and -1.28.
Taken in the same sequence, the figures for `CCn1c(N2CCC(C(=O)NC3CCCCCC3)CC2)cc(=O)n(C)c1=O` were -3% and 0.55.
For the molecule `Cc1ccc(C(=O)NCCC(=O)N2CCOC3(CCC3)C2)c(O)c1`, the “% Inhibition” value was determined as 4% and the Z score is listed as -0.4.
In the same order, the values of `CCC(OC1CCCC(C)C1)C(=O)Nc1c(C)nn(C)c1OC` (stereo unspecified) are -8% and 0.82.
In the same order, the values of `COC(=O)C1C2CCC(C2)C1NC(=O)c1cccnc1` (stereo unspecified) are -15% and 2.92.
For `Nc1ncc2c(n1)CN(C(=O)CC1CC3CCC1C3)CC2` (stereo unspecified), the “% Inhibition” value is reported as -13% and the Z score was found to be 1.98.
In the same order, the values of `CN(Cc1cnc(N(C)C)s1)CC1CCC1` are -9% and 1.15.
For the molecule `O=C(NCCc1ccc(F)c(Br)c1)NCC(=O)N1CCCC1`, the “% Inhibition” value stood at 0% and the Z score came out at 0.01.
Taken in the same sequence, the figures for `C=C(C)CNC(N)=NCc1cc(Cl)c2c(c1)OCCCO2` were 13% and -1.28.
